Results are given in words; binding and its absence hold for the method and conditions named. For part of these data: In cells and extracts the contact can be indirect. Some binding calls cover weakened binding; strength is not graded here. Tags and fused reporters may be left off the sequences shown.
B1: PUX4 (yeast two-hybrid fusion) (protein, UniProt Q8RWU7 1-303)
chain: MSSKDKKPSKPSSSRGGIRTLSDLNRRSGPDSDSDSDGPQEYYTGGEKSGMLVQDPSKKDDVDEIFNQARQLGAVEGPLEPPPSSRSFTGTGRLLSGENVPTGNQQPEPVVHNIVFWSNGFTIDDGPLRKLDDPENASFLESIRKSECPKELEPADRRAPVHVNLMRKEEKCPERQKRRVSFQGVGRTLGGSNEGSGSSSPVAPDSAPIPIQTEPAPSQSLVIDETVPTTSIQLRLADGTRLVAKFNHHHTVNDIRGFIDSSRPGASLNYQLQTMGFPPKPLTDLTQTIEEAGLANSVVLQKF
B2: UFD1B (yeast two-hybrid fusion) (protein, UniProt Q9SJV0 1-340)
chain: MVLRFCCHLLTYSVSLLPPITMFFDGYHYHGTTFEQSYRCYPASFIDKPQLESGDKIIMPPSALDRLASLHIDYPMLFELRNAGIERVTHCGVLEFIAEEGMIYMPYWMMQNLLLQEGDIVRVRNVTLPKGTYVKLQPHTTDFLDISNPKAILETALRNYSCLTSGDSIMVPYNNKKYFIDIVETKPANAISIIETDCEVDFAPPLDYKEPERPTAPSAAKGPAKAEEVVDEPEPKFNPFTGSGRRLDGRPLAYEPAPASSSKGKQPVVANGNGQSSVASSSEKATRAQGKLVFGANGNRAPKEAAPKVGAAKETKKEEQEKKDEPKFQAFSGKKYSLRG
B3: UFD1C (yeast two-hybrid fusion) (protein, UniProt Q8W570 1-311)
chain: MFYDGYAYHGTTFEQTYRCYPSSFIDKPQIESGDKIIMPPSALDRLASLQIDYPMLFELRNASTDSFSHCGVLEFIAEEGVIYIPYWMMQNLLLQEGDMVRVRNVTLPKGTYVKLQPHTTDFLDIANPKAILETALRNYSCLTVGDSIMVPYNNKKYFIDIVEAKPSNGISIIETDCEVDFAPPLDYKEPERPVAPAPAKAKEVDVAEAEPKFNPFTGSGRRLDGRPLSYEPQPGAANSNGQSHPVASSSSSGSEKATQQNRGKLVFGSNVERSTKETTKVGAGKDRKQEEEAEKEAKFQAFSGKKYSLRG
B4: GFP-SUN1 (protein, UniProt Q9FF75 1-471)
chain: MSASTVSITANTAAATRRTPILAGEKKSNFDYPQSESLANGGVGEAGGTSRDLSRGEATLDRSQGQDLGPVTRRSVSAATGTNTTATQRRTRKVATPKSEKARWKTVVRIFAKQLGALLIIVGLIQLTRKMILKASSPSSPISSYETEMAFSGLESRIAEVDGLVKATTNSMQVQVELLDKKMEREAKVLRQEIERKASAFQSELKKIESRTESLEKSVDEVNAKPWVTKDELERIYEELKKGNVDDSAFSEISIDELRAYARDIMEKEIEKHAADGLGRVDYALASGGAFVMEHSDPYLVGKGSSWFATTMRRAHTNAVKMLSPSFGEPGQCFPLKGSEGYVQIRLRGPIIPEAFTLEHVAKSVAYDRSSAPKDCRVSGSLQGPESSAETENMQLLTEFTYDLDRSNAQTFNILESSSSGLIDTVRLDFTSNHGSDSHTCIYRFRVHGRAPDPVPVVGTNLDQDSSPESE
B5: PUX4 (BiFC YFP construct) (protein, UniProt Q8RWU7 1-303)
chain: B1 chain
B6: PUX3 (BiFC YFP construct) (protein, UniProt Q9SUG6 1-302)
chain: MSSKDKKLSKPTSGRTGGIRTLSDLNRRSEPDSDSDSDGPQEYFTGGEKSGMLVQDPTKEPKHDDVDEIFNQARQLGAVEGPLEHPSSSRSFTGTGRLLSGESVPTALQQPEPVIHNIIFWSNGFTVDDGPLRKLDDPENASFLDSIRKSECPKELEPVDKRAPVHVNLMRRDEKCPEKEKLKVSFQGVGRTLGGASSSTASSQSNLTDVAAVQSPLQSLVVDETLPSTSIQLRLADGTRMVAKFNNHHTVNDIRGFIEFSRPGNPNNYTLQVMGFPPKPLTDPSQTIEQAGLASSVVIQKF
B7: PUX5 (BiFC YFP construct) (protein, UniProt Q7Y175 1-421)
chain: MATETNENLINSFIEITSSSREEANFFLESHTWNLDAAVSTFLDNDAAAAAEPNPTGPPPPSSTIAGAQSPSQSHSPDYTPSETSPSPSRSRSASPSSRAAPYGLRSRGGAGENKETENPSGIRSSRSRQHAGNIRTFADLNRSPADGEGSDSDEANEYYTGGQKSGMMVQDPKKVKDVDELFDQARQSAVDRPVEPSRSASTSFTGAARLLSGEAVSSSPQQQQQEQPQRIMHTITFWLNGFTVNDGPLRGFSDPENAAFMNSISRSECPSELEPADKKIPVHVDLVRRGENFTEPPKPKNPFQGVGRTLGASGSGSSSAPQASSAPMNVAPAPSRGLVVDPAAPTTSIQLRLADGTRLVSRFNNHHTVRDVRGFIDASRPGGSKEYQLLTMGFPPKQLTELDQTIEQAGIANAVVIQKF
B8: GFP-WIT1 (protein, UniProt Q8L7E5 1-703)
chain: METETEHDRTVSVDDNDSLVPEPSSTKESFFEDLSLTGQVMNPQLSSAGEVLTKVELDFAFVSEKLVNLSLLTMQLGTRENDFESFVSKKEEDEEEPSSNVDDDDDSAEKALEFDLLSSILNSEVKELESLLGFLQNEIQSARVMISPFQHDGEAFLDLEGKLNDTEQSLGQLMEQVVEMKKQSSNFQRLSSGLDEQGSWSGGQTSVSQNDGEFGDLSAKINMQTADQQRNVLRMLEKSLAKEMELEKKLSESRNTERELEMKLYSSEQDVVYMEEVTEDAFSRWLEADNAAEVFKGTSKEMSGKLQILQFNLSGSFKREDNLKSKLVDSKERLEAKECALHKLDSSNARLADFLVAQTEGLKESLQEAEEKLILLNTENSTLSEKVSSLEEQLNEYGIQTEDADATSGALITDLERINEELKDKLAKTEARAEETESKCKILEESKKELQDELGNFRDKGFTIHKLASLEKHLRDSDLQLEHAVAAVEASKEKQNLLYSTVSDMEDVIEDLKSKVLKAENRADITEEKLIMVSESNAEVNEELKFFKGRLKEGEKYLQQAEERKLRTAKDIGVHNKIMKKLVMQLAAERERLHKQITNLSRENCVLMVKLKKVGKTGYMESGNGSEVSPKSDQNASSCHQGSRLQATFISLTNPEEEETGSKSDIGSVRRLDVGALRFKHILVAILVILISSIAYVISQQNM
B9: ARA6-GFP (protein, UniProt Q9CB01 1-202)
chain: MGCASSLPDRNSGTLSGLSNSENAVPADAKNLRVKLVLLGDSGVGKSCIVLRFVRGQFDATSKVTVGASFLSQTIALQDSTTVKFEIWDTAGQERYSALAPLYYRGAGVAVIVYDITSPESFKKAQYWVKELQKHGSPDIVMALVGNKADLHEKREVPTEDGMELAEKNGMFFIETSAKTADNINQLFEEIGKRLPRPAPSS

Protein sequences, listed by entry. Tags and fused reporters are not part of them.
UniProt P54609: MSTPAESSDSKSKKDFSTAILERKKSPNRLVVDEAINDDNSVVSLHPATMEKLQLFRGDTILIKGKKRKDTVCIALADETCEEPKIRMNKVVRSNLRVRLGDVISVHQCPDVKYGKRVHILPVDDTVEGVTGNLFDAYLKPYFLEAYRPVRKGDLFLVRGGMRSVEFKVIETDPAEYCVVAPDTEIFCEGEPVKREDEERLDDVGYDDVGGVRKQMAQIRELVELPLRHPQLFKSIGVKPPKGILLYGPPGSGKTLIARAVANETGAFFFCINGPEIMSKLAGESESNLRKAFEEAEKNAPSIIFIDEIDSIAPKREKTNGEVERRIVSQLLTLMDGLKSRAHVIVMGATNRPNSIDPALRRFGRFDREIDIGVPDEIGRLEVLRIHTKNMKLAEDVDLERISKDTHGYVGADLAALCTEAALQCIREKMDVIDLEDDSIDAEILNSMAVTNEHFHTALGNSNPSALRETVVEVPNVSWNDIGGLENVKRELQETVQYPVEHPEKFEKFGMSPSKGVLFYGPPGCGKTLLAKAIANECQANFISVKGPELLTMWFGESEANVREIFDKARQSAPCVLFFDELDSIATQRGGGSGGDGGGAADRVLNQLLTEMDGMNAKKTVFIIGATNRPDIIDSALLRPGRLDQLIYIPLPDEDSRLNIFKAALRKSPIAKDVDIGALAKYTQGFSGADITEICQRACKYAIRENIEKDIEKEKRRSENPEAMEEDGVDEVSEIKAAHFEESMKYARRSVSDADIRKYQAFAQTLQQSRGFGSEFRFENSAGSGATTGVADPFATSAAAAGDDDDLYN

What was measured:
[1] = biological target: CDC48A (yeast two-hybrid fusion) (Arabidopsis thaliana) (UniProt P54609); test: two-hybrid; GAL4 system (pGBKT7, pGADT7), Y187 and Y2HGold mated, diploid yeasts on QDO medium (SD-Leu/-Trp/-His/-Ade), 30 °C, 3 days
[2] = biological target: T1, PUX4-HA (Arabidopsis thaliana) (UniProt Q8RWU7); test: co-IP; transient coexpression in N. benthamiana leaves; protein extract immunoprecipitated with anti-HA antibody, immunoblotted with anti-HA and anti-GFP
T1 sequence: B1 chain

[3] = biological target: T2, PUX5-HA (Arabidopsis thaliana) (UniProt Q7Y175); test: as above
T2 sequence: B7 chain

[4] = biological target: T3, PUX7-HA (Arabidopsis thaliana) (UniProt Q94JZ8); test: as above
T3 sequence: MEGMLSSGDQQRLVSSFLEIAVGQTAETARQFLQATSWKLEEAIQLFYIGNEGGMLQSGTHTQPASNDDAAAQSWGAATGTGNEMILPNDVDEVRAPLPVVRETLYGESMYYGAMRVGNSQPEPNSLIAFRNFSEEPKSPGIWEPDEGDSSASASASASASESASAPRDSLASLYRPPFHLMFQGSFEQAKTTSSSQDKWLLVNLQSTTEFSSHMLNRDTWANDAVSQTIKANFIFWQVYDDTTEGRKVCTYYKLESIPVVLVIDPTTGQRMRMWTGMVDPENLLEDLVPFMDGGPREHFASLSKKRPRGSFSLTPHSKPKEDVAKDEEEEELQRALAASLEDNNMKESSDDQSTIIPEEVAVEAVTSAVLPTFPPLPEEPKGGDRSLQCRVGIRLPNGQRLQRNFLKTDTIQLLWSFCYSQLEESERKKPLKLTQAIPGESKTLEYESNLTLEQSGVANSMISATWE

[5] = biological target: T4, SUN1 (BiFC YFP construct) (Arabidopsis thaliana) (UniProt Q9FF75); test: split reporter; BiFC YFP constructs with free mCherry transiently coexpressed in N. benthamiana, epidermal cells imaged 48 h after infiltration
T4 sequence: B4 chain

[6] = biological target: T5, KAKU4 (BiFC YFP construct) (Arabidopsis thaliana) (UniProt Q949W6); test: as above
T5 sequence: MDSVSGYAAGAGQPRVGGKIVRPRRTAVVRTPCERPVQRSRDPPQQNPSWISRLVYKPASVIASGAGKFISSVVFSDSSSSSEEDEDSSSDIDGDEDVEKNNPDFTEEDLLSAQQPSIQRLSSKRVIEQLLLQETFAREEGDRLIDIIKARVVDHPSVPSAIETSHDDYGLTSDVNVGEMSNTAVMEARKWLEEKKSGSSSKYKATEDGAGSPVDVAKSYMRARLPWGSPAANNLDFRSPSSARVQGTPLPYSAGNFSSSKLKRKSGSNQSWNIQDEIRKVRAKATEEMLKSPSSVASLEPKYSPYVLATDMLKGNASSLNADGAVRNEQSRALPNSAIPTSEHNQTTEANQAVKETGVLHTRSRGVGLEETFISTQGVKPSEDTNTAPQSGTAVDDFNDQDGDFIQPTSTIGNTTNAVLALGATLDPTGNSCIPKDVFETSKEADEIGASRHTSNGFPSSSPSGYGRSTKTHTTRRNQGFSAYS

Row | Binder | binding [1] | binding [2] | binding [6] | also measured
1 | B1 | binds | – | – | –
2 | B2 | binds | – | – | –
3 | B3 | binds | – | – | –
4 | B4 | – | binds | – | binding [3]: binds; binding [4]: no binding
5 | B5 | – | – | binds | binding [5]: binds weakly
6 | B6 | – | – | binds | –
7 | B7 | – | – | binds | –
8 | B8 | – | no binding | – | –
9 | B9 | – | no binding | – | –

Reference: PMC7324386
